Results from the RNAGym collection of RNA variant scans (doi:10.7554/elife.90254).
The source gives no read counts; variants with many changes may rest on few reads.

B1: LINE1-mini (parent)
chain: GGCAGAGCUCAACACAGCGUGGCAAAGUGGCUGUGGCUAGACUGCC

Variants of: B1
Assay: self-cleavage, relative activity (ratio to wild type); higher = more cleavage; in vitro, sequencing; the parent is a self-cleaving ribozyme

Variant | self-cleavage
GGCAGAGCUCAACACAGCGUGUCAAAGUGGCUGUGGCUCCACUGCC [G22U A39C G40C] | 0.08
GGCAGAGCUCAACACAGCGUGUCUAAGUGGCUGAGGCUAGACUGCC [G22U A24U U34A] | 0.33
GGCAGAGCUCAACACAGCGUGCCAAAGUGGCUGUGUCUAGAUUGCG [G22C G36U C42U C46G] | 0.02
GGCAGAGCUCAACACAGCGUGCCAAAGUGGCGGUGGCUAGAUUGCC [G22C U32G C42U] | 0.04
GGCAGAGCUCAACACAGCGUGCCAAAGUCGCUGUGGCUUGACUGCC [G22C G29C A39U] | 0.12
GGCAGAGCUCAACACAGCGUGCCAAAAUGGCUGUGGCUAAACUGCC [G22C G27A G40A] | 0.15
GGCAGAGCUCAACACAGCGUGUUAAAGCGGCUGUGGCUAGACUGCC [G22U C23U U28C] | 1.45
GGCAGAGCUCAACACAGCGUGUCAAAAUGGCUGUGGCUAGACGGCC [G22U G27A U43G] | 0
GGCAGAGCUCAACACAGCGUGCCAAAGGAACUGUGGCUUGACUGCC [G22C U28G G29A G30A A39U] | 0.17
GGCAGAGCUCAACACAGCGUGUCAAUGUGGCCGUGGCCAGACUGCC [G22U A26U U32C U38C] | 0.08
GGCAGAGCUCAACACAGCGUGUCCAACUGGCUGCGGCUAGACUGCC [G22U A24C G27C U34C] | 0.12
GGCAGAGCUCAACACAGCGUGUCAAAUUGGCUGUGGAUAGACUGUC [G22U G27U C37A C45U] | 0.01
GGCAGAGCUCAACACAGCGUGUCAAAGUGGCUGUGGAAAGACUGCC [G22U C37A U38A] | 0.05
GGCAGAGCUCAACACAGCGUGCCAAAGUGCCUGUGCCUAUACUGCC [G22C G30C G36C G40U] | 0.24
GGCAGAGCUCAACACAGCGUGCCAAAGUGUCUGUGGCUAGUAUGGC [G22C G30U A41U C42A C45G] | 0.02
GGCAGAGCUCAACACAGCGUGCCAAAAUGUCUGUGACUAGACUGCC [G22C G27A G30U G36A] | 0.03
GGCAGAGCUCAACACAGCGUGCCAAAGUAGCUGUGGCUAGACCGCC [G22C G29A U43C] | 0.08
GGCAGAGCUCAACACAGCGUGCCAAAGUGGCUGGGUCUGGACAGCC [G22C U34G G36U A39G U43A] | 0.02
GGCAGAGCUCAACACAGCGUGCCAAAGUGGCUGUGACUACACUGCA [G22C G36A G40C C46A] | 0.09

Variant | self-cleavage
GGCAGAGCUCAACACAGCGUGUCAAAGUGGUUGUGGCUAGACUGAC [G22U C31U C45A] | 0.04
GGCAGAGCUCAACACAGCGUGUCAAAGUCGCCUUGGCUGGACUGCC [G22U G29C U32C G33U A39G] | 0.04
GGCAGAGCUCAACACAGCGUGUCAAAGUGGCUGUUGCUAGAGUGCA [G22U G35U C42G C46A] | 0
GGCAGAGCUCAACACAGCGUGCCAAAGUGGCUGUGGCCGGACUGCC [G22C U38C A39G] | 0.07
GGCAGAGCUCAACACAGCGUGCCAAAGUGGCGGUGGCUACACUGCC [G22C U32G G40C] | 0.14
GGCAGAGCUCAACACAGCGUGCCAAAGUUGCUGUUGCUAGACUGCC [G22C G29U G35U] | 0.05
GGCAGAGCUCAACACAGCGUGUCAAAGUCGCUGUGCAUAGACUGCC [G22U G29C G36C C37A] | 0.4
GGCAGAGCUCAACACAGCGUGCCAAAGUGACUGUGGCUAGAUCGCC [G22C G30A C42U U43C] | 0.61
GGCAGAGCUCAACACAGCGUGUAAAAGUGGCUAUGUCUAGACUGCG [G22U C23A G33A G36U C46G] | 0.04
GGCAGAGCUCAACACAGCGUGCCAAAGUUGCUUUGGCUAGACUGCC [G22C G29U G33U] | 0.02
GGCAGAGCUCAACACAGCGUGUUAAAGUGGCUGUGGUUAGACUCCC [G22U C23U C37U G44C] | 0.01
GGCAGAGCUCAACACAGCGUGCCAAACUGGCUGUCGCUAGACGGCC [G22C G27C G35C U43G] | 0
GGCAGAGCUCAACACAGCGUGUCAGAGUUGCUGUGGCUAGACGCCC [G22U A25G G29U U43G G44C] | 0.22
GGCAGAGCUCAACACAGCGUGCCAAAGAGGUUGUGGAUAGACUGCC [G22C U28A C31U C37A] | 0.03
GGCAGAGCUCAACACAGCGUGCCAAAGUGGCUGUGGCUAGACUAGC [G22C G44A C45G] | 0.28
GGCAGAGCUCAACACAGCGUGUCAAACUGGCUGUGCCUAGACUGCC [G22U G27C G36C] | 0.14
GGCAGAGCUCAACACAGCGUGUCAAAGUGGCUGUGGCUUUACUGCC [G22U A39U G40U] | 0.37
GGCAGAGCUCAACACAGCGUGCCAAAGUAGCUGUGGUGAGACUGCC [G22C G29A C37U U38G] | 0
GGCAGAGCUCAACACAGCGUGUGAAAGUGGCUGUGACUAGACUGCC [G22U C23G G36A] | 0.37

Variant | self-cleavage
GGCAGAGCUCAACACAGCGUGCCAAAGUGGCUACGGCUAGACUGCC [G22C G33A U34C] | 0.04
GGCAGAGCUCAACACAGCGUGUCACAGUGGCUGUGGCUUGACUGCC [G22U A25C A39U] | 0.13
GGCAGAGCUCAACACAGCGUGUCAACGUAGCUGUGGCUAGACUGCC [G22U A26C G29A] | 0.1
GGCAGAGCUCAACACAGCGUGUCAAAGUGUAUGUGGCUAUACUGCC [G22U G30U C31A G40U] | 0.1
GGCAGAGCUCAACACAGCGUGCCAAAGUGGCUAUGGAUAGACCGCC [G22C G33A C37A U43C] | 0.06
GGCAGAGCUCAACACAGCGUGUCAAGAAGGCUGUGGCUAGACUGCC [G22U A26G G27A U28A] | 0.5
GGCAGAGCUCAACACAGCGUGUCAAAGUGACUGUGGCUGGACUUCC [G22U G30A A39G G44U] | 0.04
GGCAGAGCUCAACACAGCGUGCCAAACUGGCUGUGGCUAGACUGCA [G22C G27C C46A] | 0.41
GGCAGAGCUCAACACAGCGUGUCAAACUGGCUGUGGCUAGACUUCC [G22U G27C G44U] | 0.25
GGCAGAGCUCAACACAGCGUGUAAAAAUGGCUGUGGCUAGACUGCC [G22U C23A G27A] | 0.31
GGCAGAGCUCAACACAGCGUGCCAAAGUGGCUGUGUCUAGUCUGCC [G22C G36U A41U] | 0.06
GGCAGAGCUCAACACAGCGUGCCAAAGUAGCUGUGGACAGACUGCC [G22C G29A C37A U38C] | 0.07
GGCAGAGCUCAACACAGCGUGUAAAAAUGGGUGUGGCUAGACUGUC [G22U C23A G27A C31G C45U] | 0.16
GGCAGAGCUCAACACAGCGUGCCAAAGUGGCUUUGGCUAGACUGGC [G22C G33U C45G] | 0.04
GGCAGAGCUCAACACAGCGUGCCAAAGUGUAUGUGGCUAGACUGCU [G22C G30U C31A C46U] | 0.06
GGCAGAGCUCAACACAGCGUGCCAAAGUGGCUGUGUAGAGACUGCG [G22C G36U C37A U38G C46G] | 0.01
GGCAGAGCUCAACACAGCGUGUCAAAUUCGCUGUGGCUAGACUGCC [G22U G27U G29C] | 0.34
GGCAGAGCUCAACACAGCGUGUCAAAGUGUCUGUGGCUCGACUGCC [G22U G30U A39C] | 0.15
